Laboratory results reported in the supplement of paper PMC12217912.
The list shows a part of the results. The full chains were built here from the parent and the listed change. Inactive controls read about 0.05.

B1: TEV protease; numbered along this chain (parent)
chain: MGESLFKGPRDYNPISSSICHLTNESDGHTTSLYGIGFGPFIITNKHLFRRNNGTLVVQSLHGVFKVKDTTTLQQHLVDGRDMIIIRMPKDFPPFPQKLKFREPQREERICLVTTNFQTKSMSSMVSDTSCTFPSGDGIFWKHWIQTKDGQCGSPLVSTRDGFIVGIHSASNFTNTNNYFTSVPKNFMELLTNQEAQQWVSGWRLNADSVLWGGHKVFMVKPEEPFQPVKEATQL

Variants of: B1
Experiment: raw area under fraction-flipped curve 0-4 h after induction (AUC4h, not background-subtracted), DNA-recorder readout of cleavage of the substrate (dimensionless); higher = more cleavage of the substrate by the protease variant
Details: temperature: 34 °C; time window: 0-4 h after rhamnose induction
Experimental: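 In vivo DNA recorder in E. coli TOP10(DE3) ΔrhaA at 34 °C. Each TEVp single-site mutant (parent TEVp 0) is paired with a single-site variant of the 7-mer TEVs (canonical ENLYFQ|S). The substrate sits between flexible linkers in a Bxb1-sfGFP-TEVs-SsrA fusion, so cleavage stabilises Bxb1 and speeds flipping of a recombination array, read by NGS. The value is the raw area under the fraction-flipped curve over 0-4 h after rhamnose induction (AUC4h), with ≥20 reads per time point. It is not background-subtracted; inactive controls average about 0.047.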
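Also: Bxb1 expression induced with 0.2% (w/v) L-rhamnose at OD600 near 0.5, cultures sampled hourly, flipped fraction per protease–substrate barcode pair counted by paired-end Illumina sequencing.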

L73Y
area with substrate ENLYDQS: 0.0605
area with substrate ENLYEQS: 0.0752
area with substrate ENLYGQS: 0.054
area with substrate ENLYHQS: 0.0579
area with substrate ENLYIQS: 0.064
area with substrate ENLYKQS: 0.0635
area with substrate ENLYLQS: 0.0509
area with substrate ENLYMQS: 0.0686
area with substrate ENLYPQS: 0.0574
area with substrate ENLYQQS: 0.0665
area with substrate ENLYRQS: 0.0537
area with substrate ENLYSQS: 0.0548
area with substrate ENLYVQS: 0.0683
area with substrate ENLYWQS: 0.0583
area with substrate ENLYYQS: 0.0729

L73P
area with substrate ENLYDQS: 0.0564
area with substrate ENLYEQS: 0.0542
area with substrate ENLYGQS: 0.0519
area with substrate ENLYHQS: 0.0509
area with substrate ENLYKQS: 0.0331
area with substrate ENLYMQS: 0.0588
area with substrate ENLYNQS: 0.0575
area with substrate ENLYPQS: 0.0525
area with substrate ENLYQQS: 0.0531
area with substrate ENLYSQS: 0.0544
area with substrate ENLYTQS: 0.0654
area with substrate ENLYVQS: 0.0604
area with substrate ENLYWQS: 0.055

K221I
area with substrate ENLYDQS: 0.0652
area with substrate ENLYEQS: 0.0552
area with substrate ENLYHQS: 0.0606
area with substrate ENLYIQS: 0.0964
area with substrate ENLYKQS: 0.0648
area with substrate ENLYNQS: 0.0626
area with substrate ENLYPQS: 0.0803
area with substrate ENLYQQS: 0.0567
area with substrate ENLYRQS: 0.065
area with substrate ENLYSQS: 0.0991
area with substrate ENLYVQS: 0.0876
area with substrate ENLYWQS: 0.0708

K221Q
area with substrate ENLYDQS: 0.0509
area with substrate ENLYEQS: 0.0672
area with substrate ENLYHQS: 0.0615
area with substrate ENLYIQS: 0.0938
area with substrate ENLYKQS: 0.0662
area with substrate ENLYRQS: 0.0548
area with substrate ENLYSQS: 0.0655
area with substrate ENLYTQS: 0.0764
area with substrate ENLYVQS: 0.0903
area with substrate ENLYYQS: 0.062

N186M
area with substrate ENLYDQS: 0.076
area with substrate ENLYEQS: 0.0733
area with substrate ENLYGQS: 0.0635
area with substrate ENLYHQS: 0.0459
area with substrate ENLYKQS: 0.0645
area with substrate ENLYLQS: 0.0485
area with substrate ENLYPQS: 0.0683
area with substrate ENLYQQS: 0.0604
area with substrate ENLYRQS: 0.0617
area with substrate ENLYTQS: 0.069
area with substrate ENLYWQS: 0.0355

S124W
area with substrate ENLYDQS: 0.0699
area with substrate ENLYEQS: 0.0608
area with substrate ENLYHQS: 0.059
area with substrate ENLYIQS: 0.204
area with substrate ENLYMQS: 0.0666
area with substrate ENLYNQS: 0.0595
area with substrate ENLYPQS: 0.064
area with substrate ENLYQQS: 0.058
area with substrate ENLYRQS: 0.0616
area with substrate ENLYSQS: 0.0684
area with substrate ENLYVQS: 0.123
area with substrate ENLYWQS: 0.0901
area with substrate ENLYYQS: 0.0528

N206H
area with substrate ENLYDQS: 0.0524
area with substrate ENLYEQS: 0.0684
area with substrate ENLYGQS: 0.0666
area with substrate ENLYHQS: 0.067
area with substrate ENLYIQS: 0.107
area with substrate ENLYKQS: 0.0559
area with substrate ENLYMQS: 0.0842
area with substrate ENLYNQS: 0.0662
area with substrate ENLYPQS: 0.075
area with substrate ENLYQQS: 0.0542
area with substrate ENLYRQS: 0.0439
area with substrate ENLYSQS: 0.0676
area with substrate ENLYTQS: 0.081
area with substrate ENLYVQS: 0.116
area with substrate ENLYWQS: 0.0668
area with substrate ENLYYQS: 0.0568

P155W
area with substrate ENLYDQS: 0.0539
area with substrate ENLYEQS: 0.0515
area with substrate ENLYGQS: 0.0524
area with substrate ENLYHQS: 0.0454
area with substrate ENLYIQS: 0.041
area with substrate ENLYKQS: 0.0333
area with substrate ENLYLQS: 0.0516
area with substrate ENLYMQS: 0.0481
area with substrate ENLYNQS: 0.0582
area with substrate ENLYPQS: 0.0569
area with substrate ENLYQQS: 0.0578
area with substrate ENLYRQS: 0.0593
area with substrate ENLYSQS: 0.054
area with substrate ENLYTQS: 0.0533
area with substrate ENLYVQS: 0.0511
area with substrate ENLYWQS: 0.0561

I85P
area with substrate ENLYDQS: 0.0471
area with substrate ENLYEQS: 0.0352
area with substrate ENLYGQS: 0.0393
area with substrate ENLYHQS: 0.0447
area with substrate ENLYIQS: 0.0485
area with substrate ENLYNQS: 0.0446
area with substrate ENLYPQS: 0.0322
area with substrate ENLYQQS: 0.0702
area with substrate ENLYSQS: 0.0489
area with substrate ENLYVQS: 0.0389
area with substrate ENLYWQS: 0.0367

C111T
area with substrate ENLYDQS: 0.0769
area with substrate ENLYEQS: 0.0681
area with substrate ENLYGQS: 0.0672
area with substrate ENLYHQS: 0.0661
area with substrate ENLYKQS: 0.0435
area with substrate ENLYLQS: 0.0908
area with substrate ENLYNQS: 0.0699
area with substrate ENLYPQS: 0.0797
area with substrate ENLYRQS: 0.067
area with substrate ENLYTQS: 0.103
area with substrate ENLYVQS: 0.0703
area with substrate ENLYYQS: 0.0462

C111Y
area with substrate ENLYDQS: 0.0476
area with substrate ENLYEQS: 0.0763
area with substrate ENLYGQS: 0.0701
area with substrate ENLYHQS: 0.0645
area with substrate ENLYIQS: 0.132
area with substrate ENLYKQS: 0.0599
area with substrate ENLYPQS: 0.0821
area with substrate ENLYQQS: 0.071
area with substrate ENLYRQS: 0.0675
area with substrate ENLYSQS: 0.0689
area with substrate ENLYWQS: 0.0884
area with substrate ENLYYQS: 0.0587

G150K
area with substrate ENLYDQS: 0.0641
area with substrate ENLYEQS: 0.0569
area with substrate ENLYGQS: 0.0553
area with substrate ENLYIQS: 0.0778
area with substrate ENLYKQS: 0.0671
area with substrate ENLYLQS: 0.0457
area with substrate ENLYMQS: 0.0593
area with substrate ENLYPQS: 0.056
area with substrate ENLYQQS: 0.0667
area with substrate ENLYRQS: 0.0567
area with substrate ENLYSQS: 0.058
area with substrate ENLYTQS: 0.0522
area with substrate ENLYVQS: 0.0531
area with substrate ENLYWQS: 0.0593
area with substrate ENLYYQS: 0.064

K230M
area with substrate ENLYDQS: 0.0697
area with substrate ENLYEQS: 0.0629
area with substrate ENLYHQS: 0.0675
area with substrate ENLYIQS: 0.0819
area with substrate ENLYKQS: 0.0587
area with substrate ENLYLQS: 0.0704
area with substrate ENLYMQS: 0.0757
area with substrate ENLYNQS: 0.0618
area with substrate ENLYPQS: 0.0549
area with substrate ENLYRQS: 0.0468
area with substrate ENLYSQS: 0.0917
area with substrate ENLYVQS: 0.113
area with substrate ENLYYQS: 0.0661
